Assay results reported in paper PMC4336329 (PLoS ONE, 2015).
Screen size: about 310,000 compounds; about 14,000 (4.5%) showed an effect of 50% or more. The effect is printed as a negative number. The list shows a part of the results.

Target: human ether-à-go-go-related gene (hERG) potassium channel (human, UniProt Q12809)
Experiment: primary screen, population patch clamp on CHO cells stably expressing hERG
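Also: peak tail current of the secondary pulse compared with the same well before compound.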

Chain of human ether-à-go-go-related gene (hERG) potassium channel (Q12809 whole entry, looked up): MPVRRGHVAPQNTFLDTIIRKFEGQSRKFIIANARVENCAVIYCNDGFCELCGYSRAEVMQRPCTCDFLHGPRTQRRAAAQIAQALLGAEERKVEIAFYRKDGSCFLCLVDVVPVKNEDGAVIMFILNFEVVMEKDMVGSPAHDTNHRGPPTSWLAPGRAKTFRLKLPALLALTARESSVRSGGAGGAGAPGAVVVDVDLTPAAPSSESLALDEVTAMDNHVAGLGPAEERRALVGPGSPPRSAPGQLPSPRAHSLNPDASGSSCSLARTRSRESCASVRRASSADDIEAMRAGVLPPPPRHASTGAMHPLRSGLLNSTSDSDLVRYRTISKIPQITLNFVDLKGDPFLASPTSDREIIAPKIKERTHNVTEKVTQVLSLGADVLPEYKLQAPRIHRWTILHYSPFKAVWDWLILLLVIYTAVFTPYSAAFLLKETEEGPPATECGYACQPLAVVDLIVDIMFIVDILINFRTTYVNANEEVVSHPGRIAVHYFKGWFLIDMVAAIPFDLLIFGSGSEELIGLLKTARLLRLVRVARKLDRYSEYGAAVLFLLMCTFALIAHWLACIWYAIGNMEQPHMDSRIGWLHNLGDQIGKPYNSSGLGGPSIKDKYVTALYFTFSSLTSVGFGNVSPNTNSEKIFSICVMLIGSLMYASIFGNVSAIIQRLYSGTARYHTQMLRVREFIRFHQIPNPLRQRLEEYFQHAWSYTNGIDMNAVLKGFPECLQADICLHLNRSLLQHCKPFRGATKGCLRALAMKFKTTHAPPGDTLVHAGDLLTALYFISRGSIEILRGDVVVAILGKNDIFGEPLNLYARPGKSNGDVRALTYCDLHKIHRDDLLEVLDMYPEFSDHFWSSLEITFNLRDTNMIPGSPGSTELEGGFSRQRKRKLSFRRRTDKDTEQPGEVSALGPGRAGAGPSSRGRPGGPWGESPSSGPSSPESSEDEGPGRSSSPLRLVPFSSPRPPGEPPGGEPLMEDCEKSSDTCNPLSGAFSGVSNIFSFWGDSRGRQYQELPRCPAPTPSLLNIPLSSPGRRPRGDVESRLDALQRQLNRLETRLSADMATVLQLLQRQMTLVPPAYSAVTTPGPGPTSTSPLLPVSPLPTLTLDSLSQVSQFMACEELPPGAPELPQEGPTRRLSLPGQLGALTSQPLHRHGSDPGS

| Compound | hERG current change (%, negative = inhibition) at 10uM [%] |
| --- | --- |
| C=CCn1c(SCC(=O)NC2CCCC2)nnc1-c1ccccn1 | 12.3 |
| O=C1CN2CCC1C/C2=C\c1ccnc2c(Cl)cccc12 (stereo not shown) | -0.086 |
| Nc1cc(=O)[nH]c(SCC(=O)Nc2cc(S(=O)(=O)N3CCCCC3)ccc2Cl)n1 | 19.6 |
| Cc1ccc(OCC(=O)Nc2c[nH]c(=O)[nH]c2=O)cc1C | 18.9 |
| Cc1cccc2c3c([nH]c12)CCNC3.Cl | 8.46 |
| COc1ccccc1-n1cnnc1SCC(=O)N1CCOCC1 | 4.58 |
| Cn1cccc1/C=N/NC(=O)CSc1nc2ccccc2[nH]1 | -8.65 |
| CCOc1ccccc1NC(=S)N1CCCCCC1 | 14.2 |
| COc1ccc(CC(=O)N/N=C(\C)CC(=O)Nc2ccc3c(c2)OCCO3)cc1OC | -10.1 |
| Cc1ccccc1-c1nc2cc(Cl)ccc2c(=O)o1 | 13.3 |
| CC(C(=O)NC1CCCCC1)N(Cc1ccc(F)cc1)C(=O)c1snc(C(N)=O)c1N (stereo not shown) | -28.8 |
| COc1ccc(NC(=S)Nc2ccc(S(N)(=O)=O)cc2)c(OC)c1 | 3.01 |
| O=C(/C=C/c1ccc(S(=O)(=O)NCc2ccco2)cc1)NCc1cccc(Cl)c1 | -13.6 |
| CN(C)c1nc(OCCOC(=O)Nc2ccc(Cl)cc2Cl)nc(N(C)C)n1 | -5.59 |
| Cc1nn(-c2ccccc2)c(NC(=O)C(C)C)c(-c2ccccc2)c1=O | 14.2 |
| CC1(C)Cc2nc3sc(C(=O)NCCCO)c(N)c3cc2CO1 | 12.1 |
| COc1ccc(CCn2c(N)c(C(=O)NCc3ccco3)c3nc4ccccc4nc32)cc1OC | 14.8 |
| Cc1cc(C)nc(NC(=O)c2cc(-c3ccc4c(c3)OCO4)nc3ccccc23)c1 | 12.6 |
| N/N=C1\CCCc2nonc21 | 37 |
| CC(C)C(NC(=O)c1ccccc1F)C(=O)NCc1ccccc1 (stereo not shown) | 6.97 |
| O=C(Nc1ccc(Cl)cc1)C1=Cc2ccccc2OC1 | -9.34 |
| CN(C)CCC(c1ccccc1)c1ccccn1.O=C(O)/C=C/C(=O)O (stereo not shown) | 10.5 |

| Compound | hERG current change (%, negative = inhibition) at 10uM [%] |
| --- | --- |
| Clc1cccc(CN2CCN(Cc3nc(CCc4ccccc4)no3)CC2)c1 | -31.4 |
| Cc1ccc(OCC(=O)Nc2sc3c(c2C#N)CC(C)(C)NC3(C)C)cc1 | 1.97 |
| Cc1cnc(=O)[nH]c1SCc1cccc(C(F)(F)F)c1 | 2.37 |
| Cc1ccn2c(CNCCCn3cccn3)c(C(=O)N3CCCCCC3)nc2c1 | -23.4 |
| CCOc1ccc(S(=O)(=O)N2CCN(c3ccccc3F)CC2)c2cccnc12 | -11.2 |
| O=C1C(NS(=O)(=O)c2ccccc2)=C(N2CCN(c3ccc(F)cc3)CC2)C(=O)c2ccccc21 | 13.1 |
| Cc1nc(N)sc1-c1csc(Nc2ccc(S(N)(=O)=O)cc2)n1 | 15 |
| CCOc1ccc(S(=O)(=O)NCc2cccs2)cc1 | -20.2 |
| Cn1c(=O)c2c(nc(SCC(=O)N3CCOCC3)n2C)n(C)c1=O | 17.8 |
| CC(C)(C)C1CCC(C(=O)OCC(=O)c2ccc[nH]2)CC1 (stereo not shown) | -2.48 |
| CC(C)C1Oc2ccccc2N(CC(=O)NCCCN2C(C)CCCC2C)C1=O (stereo not shown) | -9.7 |
| CCOC(=O)C1C(=O)NC(SCC(=O)Nc2nccs2)=C(C#N)C1c1ccccc1OCC (stereo not shown) | 13.7 |
| CN(C)C=O.Cn1nnnc1SCC(=O)NNC(=O)c1ccc(F)cc1 | -9.81 |
| CC(NC(=O)NC1CCCCC1)C(c1cccs1)N1CCN(C)CC1 (stereo not shown) | -8.03 |
| Cc1[nH]n(-c2ccc(Cl)cc2)c(=O)c1C=NC12CN3CN(CN(C3)C1)C2 | -26.5 |
| Cc1c(-c2ccccc2)n[nH]c1C(=O)N=Nc1c(O)[nH]c2ccccc12 | 1.39 |
| CC(=O)c1ccc(S(=O)(=O)N2CCN(C(=O)c3ccc(N)c([N+](=O)[O-])c3)CC2)cc1 | -25.1 |
| CCN(CC)S(=O)(=O)c1ccc(N2CCN(C)CC2)c(NC(=O)COc2ccc(F)cc2Cl)c1 | -59 |
| CCN(CC)CCC/C(=N\O)C(O)(c1ccccc1)c1ccccc1 | 7.28 |
| O=C(CSc1ccc(Cl)cc1)Nc1nnc(-c2cccc([N+](=O)[O-])c2)s1 | 12.3 |
| CC(C)c1ccc2c(c1)C(c1cccs1)=NNC(c1ccncc1)=N2 | 12.7 |
| COc1ccc(N2CCN(C(=O)COc3ccc4c(C)cc(=O)oc4c3)CC2)cc1 | -16.5 |

| Compound | hERG current change (%, negative = inhibition) at 10uM [%] |
| --- | --- |
| CCOC(=O)c1c(NC2OC(=O)c3c2ccc(OC)c3OC)sc(C(=O)OC(C)(C)C)c1C (stereo not shown) | -0.684 |
| N#Cc1ccccc1OCCCN1CCC(Cc2ccccc2)CC1.O=C(O)C(=O)O | -80 |
| CCOC(Cn1ccc(=O)[nH]c1=O)OCC | 9.96 |
| CCN(C(=O)c1ccnn1C)c1ccccc1 | 4.75 |
| CCn1c(SCc2nc3ccccc3[nH]2)nnc1-c1ccccc1OC | -10.3 |
| COc1cc2[nH]c3c(OC)ncnc3c2cc1OC | 3.73 |
| Cc1cccc(C)c1C(=NCCCN(C)C)c1ccccc1.Cl | -22.4 |
| O=C(Cn1ncc2c3ccccc3n(Cc3ccccc3)c2c1=O)NCCCN1CCCC1 | -72.5 |
| CCS(=O)(=O)Nc1cc(C(=O)OC)ccc1C(=O)OC | 7.39 |
| CCOC(=O)c1ccccc1NC(=O)CSc1ncc(C(=O)OCC)c(N)n1 | 6.8 |
| CC(=O)c1ccc(S(=O)(=O)N2CCC3(CC2)OCCO3)cc1 | 4.55 |
| Cc1ccc(OCC(=O)NCCN2CCOCC2)cc1C | 7.92 |
| COc1ccc(OCC(=O)OCC(=O)Nc2ccc3[nH]c(=O)[nH]c3c2)cc1 | 3.56 |
| CCCCC(=O)NC1=C(C(=O)OC)SCC1 | 21.2 |
| NS(=O)(=O)c1cc(C(=O)NCCc2ccccn2)ccc1Cl | -39.5 |
| CC(C)N(C(=O)CSc1nnc(-c2cc3ccccc3cc2O)n1Cc1ccco1)C(C)C | -24.1 |
| O=C(NCc1ccccn1)c1cccc(S(=O)(=O)NCc2ccccc2)c1 | -3.88 |
| COc1cccc(SCc2noc(C(=O)NCCCN3CCOCC3)c2C(=O)NCCCN2CCOCC2)c1 | -4.2 |
| Cc1ccc(C(=O)NNC(=S)NC(=O)c2ccc(Cl)cc2Cl)cc1 | -4.97 |
| COc1ccc(C(=O)NCc2nnc(SCC(=O)Nc3cc(OC)ccc3OC)o2)cc1 | -27 |
| O=C(NC1CCCCC1)C1CCN(C(=O)NCc2ccccc2)CC1 | -2.05 |
| Cc1cccc(N2CCN(C(=O)CCS(=O)(=O)c3ccc4c(c3)NC(=O)CO4)CC2)c1C | 6.12 |

| Compound | hERG current change (%, negative = inhibition) at 10uM [%] |
| --- | --- |
| N#C/C(=C/c1ccc(OCc2ccc(C(=O)O)cc2)cc1)C(=O)Nc1ccccc1 | 16.2 |
| O=C(COC(=O)c1n[nH]c2ccccc12)Nc1ccc(Cl)cc1[N+](=O)[O-] | 22.7 |
| CC(C)(C)C(=O)Nc1nc2cc3c(cc2s1)OCO3 | 20.1 |
| CCN(CC)CC.COc1ccccc1-n1c(=S)[nH]c2c(sc(=S)n2-c2ccccc2)c1=O | 16.9 |
| COc1ccc(C(=O)N(CCCO)C(C)C(=O)NC2CCCCC2)cc1OC (stereo not shown) | -2.63 |
| Cc1ccc2c(c1)C(=O)CCCCC(=O)N2 | 8.33 |
| Cc1nc(N2CCN(c3ccccc3)CC2)[nH]c(=O)c1Cc1cccc2ccccc12 | 9.76 |
| O=C(NCc1ccc(F)cc1)c1ccc2c(=O)n3c(nc2c1)CCCCC3 | -36.7 |
| Br.N=c1n(CC(=O)c2cccs2)c2ccccc2n1Cc1ccccc1 | -48 |
| O=C(C1CCN(S(=O)(=O)c2cccc3cccnc23)CC1)N1CCN(c2ccccc2)CC1 | -16 |
| O=[N+]([O-])c1ccccc1/C=C/CN1CCCC(CO)C1 (stereo not shown) | 1.93 |
| CCCCOC(=O)Nc1ccccc1C(N)=O | -5.36 |
| O=C1Nc2ccc(F)cc2C12Nc1ccccc1-c1nnc(SCc3ccccc3F)nc1O2 (stereo not shown) | 5.23 |
| COc1ccc(C(C)=O)cc1Cc1c(O)[nH]c(=S)[nH]c1=O | 11.1 |
| Cn1ncc(N2CCN(S(=O)(=O)c3ccc(Br)cc3)CC2)c(Cl)c1=O | -43.9 |
| COc1ccc(Cc2nc3ccccc3[nH]2)cc1OC | 6.17 |
| CC(OC(=O)C1CCN(S(=O)(=O)c2ccc(Cl)cc2)CC1)C(=O)NC1CCCCC1C (stereo not shown) | -1.5 |
| COc1ccccc1CNC(=O)CCCn1nc(C)c2c(C)n(-c3ccc(C)cc3)nc2c1=O | -35.8 |
| O=C(CNC(=O)COc1ccccc1)NCCN1CCOCC1 | 4.48 |
| CC(OC(=O)c1nn(C)c(=O)c2ccccc12)C(=O)NCc1ccc2c(c1)OCO2 (stereo not shown) | -18.8 |
| Cc1onc(-c2ccccc2)c1C(=O)n1cccn1 | 12.3 |
| CCOC(=O)c1c(-c2ccccc2)oc2ccc(O)c(CN3CCOCC3)c12 | -37 |
